# Inconclusive means that the source gave no clear call. Such entries were picked first, then a sample of the others. For some of these results: A potency beside an inconclusive call is a rough fit, not a confirmed value. Activity calls are given as the source filed them. Unless noted, calls follow the shape of the dose curve; as a rule, active = well fitted curve in the direction sought with a large enough effect in the repeat runs; inconclusive = weak or mixed curves; inactive = no such curve, though single readings can be large; an effect the other way counts as inactive or inconclusive.
# Assays:
# [1] = biological target: Peroxisome proliferator-activated receptor gamma (Homo sapiens) (UniProt P37231); experiment: qHTS assay to identify small molecule antagonists of the peroxisome proliferator-activated receptor gamma (PPARg) signaling pathway (AID 743191; calls by dose curve; also: nearly all actives have a fitted effect of over 30% in size; also: potency is read from the fitted curve at half-maximal effect; as to ratio activity, negative = inhibition: % is scaled to controls: 0 for no effect and ±100 for the full control effect); settings: HEK293H PPARg-UAS-bla, beta-lactamase ratio, antagonist, 17 h; ratio activity, negative = inhibition: at 62.6 µM (top of the series) unless noted
# Method in brief: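 Beta-lactamase reporter under UAS control in HEK293H PPARg-bla cells; compound treatment 17 h at 37C. Read-out: fluorescence intensity after 1 h room-temperature incubation with LiveBLAzer B/G FRET substrate.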
# [2] = qHTS assay to identify small molecule antagonists of the peroxisome proliferator-activated receptor gamma (PPARg) signaling pathway - cell viability counter screen (AID 743194); settings: PPARg-bla HEK293H viability, CellTiter-Glo luminescence, 17 h; Potency: co-treated with 50 nM rosiglitazone unless noted; activity change, negative = cytotoxicity: at 62.6 µM (top of the series), co-treated with 50 nM rosiglitazone unless noted; also: nearly all actives have a fitted effect of over 55% in size; also: potency is read from the fitted curve at half-maximal effect
# Method in brief: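 Viability was measured as CellTiter-Glo luminescence in GeneBLAzer PPARg UAS-bla HEK293H cells. These cells had been exposed 17 h at 37 C to compounds together with rosiglitazone at 50 nM final, with the beta-lactamase readout taken in the same wells.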
# [3] = qHTS assay for small molecule activators of the heat shock response signaling pathway (AID 743210; active = well fitted activation curve with a large enough effect in the signal ratio in the repeat runs, with a control signal flat, not every such curve was filed as active; inconclusive = weak or mixed curves; the % refers to the signal ratio; also: potency is read from the fitted curve at half-maximal effect); settings: HeLa HSE-bla reporter, beta-lactamase ratio, 5 h; activation: at 62.6 µM (top of the series)
# Method in brief: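 Compound exposure lasted 5 h at 37 C in HeLa cells carrying a heat-shock-element-driven beta-lactamase reporter. Read-out: fluorescence intensity after 2.5 h room-temperature loading with LiveBLAzer B/G FRET substrate.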
# [4] = qHTS assay to identify small molecule antagonists of the peroxisome proliferator-activated receptor delta (PPARd) signaling pathway - cell viability counter screen (AID 743213); settings: PPARd-bla HEK293H viability, CellTiter-Glo luminescence, 17 h; viability change, negative = cytotoxic: at 62 µM (top of the series) unless noted; also: nearly all actives have a fitted effect of over 50% in size; also: potency is read from the fitted curve at half-maximal effect
# Method in brief: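 Viability counter-screen, qHTS format: PPARd-bla HEK293H, L165041 300 nM final, 17 h compound exposure at 37 C, CellTiter-Glo luminescence after 30 min RT.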
# [5] = qHTS assay to identify small molecule antagonists of the vitamin D receptor (VDR) signaling pathway - cell viability counter screen (AID 743225); settings: VDR-bla HEK293T viability, CellTiter-Glo luminescence, 16 h; viability change, negative = cytotoxic: at 61 µM (top of the series) unless noted; also: % is scaled to controls: 0 for no effect and ±100 for the full control effect; nearly all actives have a fitted effect of over 50% in size
# Method in brief: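 Viability counter screen run in the same wells as the beta-lactamase reporter assay: HEK 293T VDR-UAS-bla cells, 16 h compound exposure at 37C with 3 nM (final) 1-alpha,25-dihydroxyvitamin D3. CellTiter-Glo luminescence, 30 min, room temperature.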
# [6] = qHTS assay for small molecule agonists of the antioxidant response element (ARE) signaling pathway (AID 743202; active = well fitted activation curve with a large enough effect in the signal ratio in the repeat runs, not every such curve was filed as active; inconclusive = weak or mixed curves, or effect the other way; inactive = no such curve, though single readings can be large or run the other way; the % refers to the signal ratio; also: potency is read from the fitted curve at half-maximal effect); settings: HepG2 ARE-bla reporter, beta-lactamase FRET, 16 h; activation: at 73.3 µM (top of the series) unless noted
# Method in brief: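 After 16 hours of compound treatment at 37 C, HepG2 cells with a stably integrated ARE-driven beta-lactamase reporter were loaded 2 hours at room temperature with LiveBLAzer B/G FRET substrate and fluorescence intensity measured.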
# [7] = biological target: Peroxisome proliferator-activated receptor delta (Homo sapiens) (UniProt Q03181); experiment: qHTS assay to identify small molecule antagonists of the peroxisome proliferator-activated receptor delta (PPARd) signaling pathway (AID 743215; active = well fitted inhibition curve with a large enough effect in the signal ratio in the repeat runs, not every such curve was filed as active; inconclusive = weak or mixed curves, or effect the other way; inactive = no such curve, though single readings can be large or run the other way; the % refers to the signal ratio;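 also: cells stimulated with agonist L165041 at 300 nM final during compound exposure; % is scaled to controls: 0 for no effect and ±100 for the full control effect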); settings: HEK293H PPARd-UAS-bla, beta-lactamase FRET ratio, antagonist, 17 h; ratio activity, negative = inhibition: at 62 µM (top of the series) unless noted
# Method in brief: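 Screen format: qHTS, antagonist mode. HEK293H PPARd-bla cells received compound and 300 nM L165041 (final), 17 h, 37 C. Beta-lactamase detected via FRET substrate fluorescence, 2 h, room temperature.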
# [8] = biological target: Bile acid receptor (Homo sapiens) (UniProt Q96RI1); experiment: qHTS assay to identify small molecule antagonists of the farnesoid-X-receptor (FXR) signaling pathway (AID 743217; active = well fitted inhibition curve with a large enough effect in the signal ratio in the repeat runs, not every such curve was filed as active; inconclusive = weak or mixed curves, or effect the other way; inactive = no such curve, though single readings can be large or run the other way; the % refers to the signal ratio; also: potency is read from the fitted curve at half-maximal effect); settings: HEK293T FXR-UAS-bla, beta-lactamase ratio, CDCA-stimulated, 16 h; activity change, negative = inhibition: at 62.6 µM (top of the series) unless noted
# Method in brief: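 Quantitative HTS, beta-lactamase reporter format: FXR-UAS-bla HEK 293T cells co-treated 16 h at 37 °C with compounds and 50 uM final chenodeoxycholic acid, then read by B/G FRET fluorescence.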
# [9] = qHTS assay to identify small molecule agonists of the farnesoid-X-receptor (FXR) signaling pathway - cell viability counter screen (AID 743218); settings: FXR-bla HEK293T viability, CellTiter-Glo luminescence, 16 h; viability change, negative = cytotoxic: at 62.6 µM (top of the series) unless noted; also: potency is read from the fitted curve at half-maximal effect; nearly all actives have a fitted effect of over 45% in size
# Method in brief: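 Same-well cytotoxicity check on FXR-UAS-bla HEK 293T cells: 5 h attachment, 16 h compound at 37 C, CellTiter-Glo luminescence read at room temperature after 30 min.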
# [10] = biological target: Vitamin D3 receptor (Homo sapiens) (UniProt P11473); experiment: qHTS assay to identify small molecule antagonists of the vitamin D receptor (VDR) signaling pathway (AID 743223; active = well fitted inhibition curve with a large enough effect in the signal ratio in the repeat runs, not every such curve was filed as active; inconclusive = weak or mixed curves, or effect the other way; inactive = no such curve, though single readings can be large or run the other way; the % refers to the signal ratio; also: % is scaled to controls: 0 for no effect and ±100 for the full control effect); settings: VDR-UAS-bla HEK293T, beta-lactamase FRET ratio, 16 h; activity change, negative = inhibition: at 61 µM (top of the series) unless noted
# Method in brief: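 Beta-lactamase reporter read-out: FRET substrate fluorescence after 2 h at room temperature, following 16 h exposure of VDR-bla cells to test compound plus 3 nM (final) 1alpha,25-dihydroxyvitamin D3 agonist at 37C.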
# [11] = biological target: Vitamin D3 receptor (Homo sapiens) (UniProt P11473); experiment: qHTS assay to identify small molecule agonists of the vitamin D receptor (VDR) signaling pathway (AID 743222; calls by dose curve; also: % is scaled to controls: 0 for no effect and ±100 for the full control effect); settings: HEK293T VDR-UAS-bla, beta-lactamase FRET ratio, 16 h; activation: at 63.5 µM (top of the series) unless noted
# Method in brief: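 Using LiveBLAzer B/G FRET detection, agonism was scored in VDR-bla cells exposed overnight (16 h, 37C) to DMSO-dissolved compounds; substrate incubation was 2 h at room temperature.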
# [12] = qHTS assay for small molecule activators of the heat shock response signaling pathway - cell viability counter screen (AID 743209); settings: HSE-bla HeLa viability, CellTiter-Glo luminescence, 5 h; activity change, negative = cytotoxicity: at 62.6 µM (top of the series) unless noted; also: nearly all actives have a fitted effect of over 50% in size; also: potency is read from the fitted curve at half-maximal effect
# Method in brief: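 To flag cytotoxic compounds, HSE-bla HeLa cells plated at 1500 cells/well were dosed for 5 h at 37 C, followed by the reporter FRET read and then CellTiter-Glo, with luminescence recorded 30 min after reagent addition.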
# [13] = qHTS assay to identify small molecule agonists of the vitamin D receptor (VDR) signaling pathway - cell viability counter screen (AID 743224); also: % is scaled to controls: 0 for no effect and ±100 for the full control effect; nearly all actives have a fitted effect of over 50% in size
# Method in brief: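 Counter screen for cytotoxicity: VDR-bla cells at 2,000 cells/well, 16 h compound exposure, then CellTiter-Glo luminescence after the beta-lactamase measurement.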
# Tags tell the direction and shape of the fitted curve or compound fluorescence and quenching.
# Chain of UniProt P37231 (P37231 whole entry, looked up): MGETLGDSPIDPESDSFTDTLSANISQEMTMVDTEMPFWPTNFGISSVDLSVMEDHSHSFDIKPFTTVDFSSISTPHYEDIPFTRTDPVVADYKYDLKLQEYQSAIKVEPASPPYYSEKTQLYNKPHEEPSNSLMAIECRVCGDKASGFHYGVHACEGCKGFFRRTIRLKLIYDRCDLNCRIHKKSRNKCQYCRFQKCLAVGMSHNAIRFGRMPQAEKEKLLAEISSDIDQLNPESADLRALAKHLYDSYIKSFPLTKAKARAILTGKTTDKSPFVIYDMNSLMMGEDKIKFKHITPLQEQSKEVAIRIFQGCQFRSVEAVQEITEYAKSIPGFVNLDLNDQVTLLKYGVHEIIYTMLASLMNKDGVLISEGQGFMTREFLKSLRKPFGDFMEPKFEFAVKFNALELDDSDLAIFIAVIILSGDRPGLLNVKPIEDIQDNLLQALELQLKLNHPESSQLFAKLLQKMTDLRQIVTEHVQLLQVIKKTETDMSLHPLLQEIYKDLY
# Chain of UniProt P11473 (P11473 whole entry, looked up): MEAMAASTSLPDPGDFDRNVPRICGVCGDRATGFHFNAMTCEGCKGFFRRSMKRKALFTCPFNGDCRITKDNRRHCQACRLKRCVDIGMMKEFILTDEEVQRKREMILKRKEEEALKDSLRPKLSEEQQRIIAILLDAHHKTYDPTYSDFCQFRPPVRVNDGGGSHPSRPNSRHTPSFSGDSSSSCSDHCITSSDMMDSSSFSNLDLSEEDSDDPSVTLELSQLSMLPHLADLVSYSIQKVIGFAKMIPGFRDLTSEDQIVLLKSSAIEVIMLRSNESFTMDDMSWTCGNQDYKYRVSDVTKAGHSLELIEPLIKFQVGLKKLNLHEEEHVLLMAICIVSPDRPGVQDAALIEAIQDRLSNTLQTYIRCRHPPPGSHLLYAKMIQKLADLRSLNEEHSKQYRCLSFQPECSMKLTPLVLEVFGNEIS
# Chain of UniProt Q96RI1 (Q96RI1 whole entry, looked up): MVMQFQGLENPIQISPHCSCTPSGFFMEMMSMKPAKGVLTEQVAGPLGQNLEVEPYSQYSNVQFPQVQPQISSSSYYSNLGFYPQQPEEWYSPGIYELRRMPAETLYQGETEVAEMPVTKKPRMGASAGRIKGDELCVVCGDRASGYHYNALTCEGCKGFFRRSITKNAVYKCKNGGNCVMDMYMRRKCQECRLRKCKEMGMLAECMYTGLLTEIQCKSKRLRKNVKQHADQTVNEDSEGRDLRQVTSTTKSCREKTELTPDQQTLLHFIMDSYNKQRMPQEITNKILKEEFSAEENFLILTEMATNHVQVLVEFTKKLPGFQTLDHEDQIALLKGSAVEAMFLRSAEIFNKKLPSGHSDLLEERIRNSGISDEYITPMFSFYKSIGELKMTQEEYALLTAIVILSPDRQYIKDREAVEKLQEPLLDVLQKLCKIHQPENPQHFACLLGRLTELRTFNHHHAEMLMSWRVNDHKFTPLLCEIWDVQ
# Chain of UniProt Q03181 (Q03181 whole entry, looked up): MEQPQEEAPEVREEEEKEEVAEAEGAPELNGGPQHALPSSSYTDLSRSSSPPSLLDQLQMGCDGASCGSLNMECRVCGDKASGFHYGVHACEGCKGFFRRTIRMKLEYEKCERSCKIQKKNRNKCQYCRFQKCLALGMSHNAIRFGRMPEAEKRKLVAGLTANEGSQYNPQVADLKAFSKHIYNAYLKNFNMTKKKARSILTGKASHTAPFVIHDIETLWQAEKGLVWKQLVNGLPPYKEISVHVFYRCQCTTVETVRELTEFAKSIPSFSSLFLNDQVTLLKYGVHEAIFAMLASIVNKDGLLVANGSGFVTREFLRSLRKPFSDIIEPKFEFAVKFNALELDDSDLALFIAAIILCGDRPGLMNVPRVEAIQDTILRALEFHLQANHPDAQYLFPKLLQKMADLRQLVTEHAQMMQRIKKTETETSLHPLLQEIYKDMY
smiles,measurement,setting,value
CCn1cc[n+](C)c1C,"ratio activity, negative = inhibition",[1],inconclusive: -14.6% [at 81.1 µM]
same,"activity change, negative = cytotoxicity",[2],inconclusive: -33.1% [cytotoxic] [at 62.6 µM]
same,Potency,[3],"inconclusive: 61.4 µM [rising, partial curve, poor fit]"
same,Potency,[4],"inconclusive: 0.0435 µM [cytotoxic, full curve, poor fit]"
same,Potency,[5],inactive
C[C@H]1CNCCc2ccc(Cl)cc21,"ratio activity, negative = inhibition",[1],inconclusive: -11.5%
same,Potency,[2],inactive
same,Potency,[6],"inconclusive: 23.7 µM [falling, partial curve, poor fit]"
same,Potency,[4],"inconclusive: 33.5 µM [cytotoxic, single point]"
CC(C)c1c(CN(C)C(C)Cc2ccccc2)n(C)n(-c2ccccc2)c1=O (stereo not drawn),Potency,[1],inconclusive: 29.8 µM
same,Potency,[2],"inconclusive: 1.68 µM [cytotoxic, full curve]"
same,Potency,[6],"inconclusive: 33.5 µM [partial curve, poor fit]"
same,Potency,[4],active: 13.3 µM
same,"ratio activity, negative = inhibition",[7],inconclusive: 10.3%
same,Potency,[8],"inconclusive: 9.44 µM [inhibitor, partial curve]"
same,Potency,[9],"inconclusive: 18.8 µM [cytotoxic, partial curve]"
same,"activity change, negative = inhibition",[10],inconclusive: 1.25%
C=CC(=O)OCCN(C)C,"ratio activity, negative = inhibition",[1],inconclusive: 1.31%
same,Potency,[2],inactive
same,Potency,[6],inactive
same,Potency,[3],inactive
same,Potency,[4],inactive
same,"activity change, negative = inhibition",[10],inconclusive: -28.5%
CNC(=O)Oc1ccc(N(C)C)c(C)c1,"ratio activity, negative = inhibition",[1],inconclusive: 23.9%
same,Potency,[2],inactive
same,Potency,[6],"inconclusive: 21.7 µM [rising, full curve, poor fit]"
same,Potency,[3],inactive
same,Potency,[8],inactive
same,activation,[11],inconclusive: -4.21%
same,"activity change, negative = inhibition",[10],inconclusive: 16.8%
Nc1cccc2ccccc12,"ratio activity, negative = inhibition",[1],inconclusive: 23.2% [at 81.1 µM]
same,Potency,[2],"inconclusive: 0.022 µM [cytotoxic, full curve, poor fit]"
same,activation,[6],inconclusive: -3.1% [at 94.8 µM]
same,"ratio activity, negative = inhibition",[7],inconclusive: 6.69% [at 80.4 µM]
O=c1[nH]c(=O)[nH]c(=O)[nH]1,Potency,[1],inactive
same,Potency,[2],"inconclusive: 9.71 µM [cytotoxic, full curve, poor fit]"
same,Potency,[12],"inconclusive: 0.195 µM [rising, full curve, poor fit]"
C1CCNCC1,Potency,[1],inactive
same,Potency,[2],inactive
same,Potency,[6],inactive
same,Potency,[12],inactive
same,Potency,[3],inactive
same,Potency,[13],inactive
